# The other results are listed elsewhere or left out.
# B1: Gal 7 (Homo sapiens) (protein)
# chain: MSNVPHKSSLPEGIRPGTVLRIRGLVPPNASRFHVNLLCGEEGGSDAALHFNPRLDTSEVVFNSKEGGSWGREERGPGVPFGRGQPFEVLIIASDDGFKAVVGDAQYHHFRHRLPLARVRLVEVGGDVQLDSVRIF
# What was measured:
# Test in all cases: glycan array binding signal (z-score within array); higher = stronger binding
# Conditions in all cases: glycan notation: IUPAC condensed, linker removed
# Fuc(a1-2)Gal = target: Fuc(a1-2)Gal
# How it was run: (§1)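 The Consortium for Functional Glycomics database supplied 3228 glycan arrays, of which those lacking an available protein sequence were dropped. The binding signal, a within-array Z-score, was averaged across arrays of the same protein sequence and across linkers. Negative scores can be read as non-binding.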
# Fuc(a1-2)Gal(b1-3)GalNAc = target: Fuc(a1-2)Gal(b1-3)GalNAc
# How it was run: as §1
# [1] = target: Fuc(a1-2)Gal(b1-3)GalNAc(a1-3)[Fuc(a1-2)]Gal(b1-4)Glc
# How it was run: as §1
# [2] = target: Fuc(a1-2)Gal(b1-3)GalNAc(a1-3)[Fuc(a1-2)]Gal(b1-4)GlcNAc
# How it was run: as §1
# [3] = target: Fuc(a1-2)Gal(b1-3)GalNAc(b1-3)Gal
# How it was run: as §1
# [4] = target: Fuc(a1-2)Gal(b1-3)GalNAc(b1-3)Gal(a1-4)Gal(b1-4)Glc
# How it was run: as §1
# [5] = target: Fuc(a1-2)Gal(b1-3)GalNAc(b1-3)Gal(b1-4)Glc
# How it was run: as §1
# [6] = target: Fuc(a1-2)Gal(b1-3)GalNAc(b1-4)[Neu5Ac(a2-3)]Gal(b1-4)Glc
# How it was run: as §1
# Fuc(a1-2)Gal(b1-3)GlcNAc = target: Fuc(a1-2)Gal(b1-3)GlcNAc
# How it was run: as §1
# [7] = target: Fuc(a1-2)Gal(b1-3)GlcNAc(b1-2)Man(a1-3)[Fuc(a1-2)Gal(b1-3)GlcNAc(b1-2)Man(a1-6)]Man(b1-4)GlcNAc(b1-4)GlcNAc
# How it was run: as §1
# [8] = target: Fuc(a1-2)Gal(b1-3)GlcNAc(b1-2)Man(a1-3)[Fuc(a1-2)Gal(b1-3)GlcNAc(b1-2)Man(a1-6)]Man(b1-4)GlcNAc(b1-4)[Fuc(a1-6)]GlcNAc
# How it was run: as §1
# [9] = target: Fuc(a1-2)Gal(b1-3)GlcNAc(b1-3)Gal(b1-4)Glc
# How it was run: as §1
# [10] = target: Fuc(a1-2)Gal(b1-3)GlcNAc(b1-3)GalNAc
# How it was run: as §1
# [11] = target: Fuc(a1-2)Gal(b1-3)GlcNAc(b1-3)[Fuc(a1-2)Gal(b1-3)GlcNAc(b1-6)]GalNAc
# How it was run: as §1
# [12] = target: Fuc(a1-2)Gal(b1-3)GlcNAc(b1-3)[Fuc(a1-3)[Gal(b1-4)]GlcNAc(b1-6)]Gal(b1-4)Glc
# How it was run: as §1
# [13] = target: Fuc(a1-2)Gal(b1-3)GlcNAc(b1-3)[Gal(b1-4)GlcNAc(b1-6)]Gal(b1-4)Glc
# How it was run: as §1
# [14] = target: Fuc(a1-2)Gal(b1-3)GlcNAc(b1-3)[Neu5Ac(a2-6)Gal(b1-4)GlcNAc(b1-6)]Gal(b1-4)Glc
# How it was run: as §1
# [15] = target: Fuc(a1-2)Gal(b1-3)GlcNAc6S
# How it was run: as §1
# [16] = target: Fuc(a1-2)Gal(b1-3)[Fuc(a1-4)]GlcNAc
# How it was run: as §1
# [17] = target: Fuc(a1-2)Gal(b1-3)[Fuc(a1-4)]GlcNAc(b1-2)Man(a1-3)[Fuc(a1-2)Gal(b1-3)[Fuc(a1-4)]GlcNAc(b1-2)Man(a1-3)]Man(b1-4)GlcNAc(b1-4)GlcNAc
# How it was run: as §1
# [18] = target: Fuc(a1-2)Gal(b1-3)[Fuc(a1-4)]GlcNAc(b1-2)Man(a1-3)[Fuc(a1-2)Gal(b1-3)[Fuc(a1-4)]GlcNAc(b1-2)Man(a1-6)]Man(b1-4)GlcNAc(b1-4)GlcNAc
# How it was run: as §1
# [19] = target: Fuc(a1-2)Gal(b1-3)[Fuc(a1-4)]GlcNAc(b1-2)Man(a1-3)[Fuc(a1-2)Gal(b1-3)[Fuc(a1-4)]GlcNAc(b1-2)Man(a1-6)]Man(b1-4)GlcNAc(b1-4)[Fuc(a1-6)]GlcNAc(b1-4)[Fuc(a1-6)]GlcNAc
# How it was run: as §1
# [20] = target: Fuc(a1-2)Gal(b1-3)[Fuc(a1-4)]GlcNAc(b1-2)Man(a1-6)[Fuc(a1-2)Gal(b1-3)[Fuc(a1-4)]GlcNAc(b1-2)Man(a1-3)]Man(b1-4)GlcNAc(b1-4)[Fuc(a1-6)]GlcNAc
# How it was run: as §1
# [21] = target: Fuc(a1-2)Gal(b1-3)[Fuc(a1-4)]GlcNAc(b1-3)[Fuc(a1-3)[Gal(b1-4)]GlcNAc(b1-6)]Gal(b1-4)Glc
# How it was run: as §1
# [22] = target: Fuc(a1-2)Gal(b1-3)[Fuc(a1-4)]GlcNAc(b1-3)[Gal(b1-4)GlcNAc(b1-6)]Gal(b1-4)Glc
# How it was run: as §1
# [23] = target: Fuc(a1-2)Gal(b1-4)Fuc(a1-3)]GlcNAc(b1-2)Man(a1-3)[Fuc(a1-2)Gal(b1-4)[Fuc(a1-3)]GlcNAc(b1-2)Man(a1-6)]Man(b1-4)GlcNAc(b1-4)GlcNAc
# How it was run: as §1
# Fuc(a1-2)Gal(b1-4)Glc = target: Fuc(a1-2)Gal(b1-4)Glc
# How it was run: as §1
# Fuc(a1-2)Gal(b1-4)Glc6S = target: Fuc(a1-2)Gal(b1-4)Glc6S
# How it was run: as §1
# Fuc(a1-2)Gal(b1-4)GlcNAc = target: Fuc(a1-2)Gal(b1-4)GlcNAc
# How it was run: as §1
# [24] = target: Fuc(a1-2)Gal(b1-4)GlcNAc(b1-2)Man
# How it was run: as §1
# [25] = target: Fuc(a1-2)Gal(b1-4)GlcNAc(b1-2)Man(a1-3)[Fuc(a1-2)Gal(b1-4)GlcNAc(b1-2)Man(a1-6)]Man(b1-4)GlcNAc(b1-4)GlcNAc
# How it was run: as §1
# [26] = target: Fuc(a1-2)Gal(b1-4)GlcNAc(b1-2)Man(a1-3)[Fuc(a1-2)Gal(b1-4)GlcNAc(b1-2)Man(a1-6)]Man(b1-4)GlcNAc(b1-4)[Fuc(a1-6)]GlcNAc
# How it was run: as §1
# [27] = target: Fuc(a1-2)Gal(b1-4)GlcNAc(b1-2)[Fuc(a1-2)Gal(b1-4)GlcNAc(b1-4)]Man(a1-3)[Fuc(a1-2)Gal(b1-4)GlcNAc(b1-2)Man(a1-6)]Man(b1-4)GlcNAc(b1-4)GlcNAc
# How it was run: as §1
# [28] = target: Fuc(a1-2)Gal(b1-4)GlcNAc(b1-3)Gal(b1-4)GlcNAc
# How it was run: as §1
# [29] = target: Fuc(a1-2)Gal(b1-4)GlcNAc(b1-3)Gal(b1-4)GlcNAc(b1-2)Man(a1-3)[Fuc(a1-2)Gal(b1-4)GlcNAc(b1-3)Gal(b1-4)GlcNAc(b1-2)Man(a1-6)]Man(b1-4)GlcNAc(b1-4)GlcNAc
# How it was run: as §1
# [30] = target: Fuc(a1-2)Gal(b1-4)GlcNAc(b1-3)Gal(b1-4)GlcNAc(b1-3)Gal(b1-4)GlcNAc
# How it was run: as §1
# [31] = target: Fuc(a1-2)Gal(b1-4)GlcNAc(b1-3)GalNAc
# How it was run: as §1
# [32] = target: Fuc(a1-2)Gal(b1-4)GlcNAc(b1-3)[Fuc(a1-2)Gal(b1-4)GlcNAc(b1-6)]GalNAc
# How it was run: as §1
# [33] = target: Fuc(a1-2)Gal(b1-4)GlcNAc(b1-3)[Fuc(a1-3)[Gal(b1-4)]GlcNAc(b1-6)]Gal(b1-4)Glc
# How it was run: as §1
# [34] = target: Fuc(a1-2)Gal(b1-4)GlcNAc(b1-6)GalNAc
# How it was run: as §1
# [35] = target: Fuc(a1-2)Gal(b1-4)GlcNAc6S
# How it was run: as §1
# [36] = target: Fuc(a1-2)Gal(b1-4)[Fuc(a1-3)]GalNAc(b1-3)Gal(b1-4)[Fuc(a1-3)]GlcNAc
# How it was run: as §1
# [37] = target: Fuc(a1-2)Gal(b1-4)[Fuc(a1-3)]GalNAc(b1-3)Gal(b1-4)[Fuc(a1-3)]GlcNAc(b1-3)Gal(b1-4)[Fuc(a1-3)]GalNAc
# How it was run: as §1
# [38] = target: Fuc(a1-2)Gal(b1-4)[Fuc(a1-3)]GlcNAc
# How it was run: as §1
# [39] = target: Fuc(a1-2)Gal(b1-4)[Fuc(a1-3)]GlcNAc(b1-2)Man(a1-3)[Fuc(a1-2)Gal(b1-4)[Fuc(a1-3)]GlcNAc(b1-2)Man(a1-6)]Man(b1-4)GlcNAc(b1-4)GlcNAc
# How it was run: as §1
binder,measurement,setting,value
B1,glycan array binding signal (z-score),Fuc(a1-2)Gal,-0.282
same,glycan array binding signal (z-score),Fuc(a1-2)Gal(b1-3)GalNAc,0.427
same,glycan array binding signal (z-score),[1],0.02
same,glycan array binding signal (z-score),[2],-0.264
same,glycan array binding signal (z-score),[3],-0.329
same,glycan array binding signal (z-score),[4],-0.316
same,glycan array binding signal (z-score),[5],1.09
same,glycan array binding signal (z-score),[6],-0.316
same,glycan array binding signal (z-score),Fuc(a1-2)Gal(b1-3)GlcNAc,-0.279
same,glycan array binding signal (z-score),[7],0.053
same,glycan array binding signal (z-score),[8],0.184
same,glycan array binding signal (z-score),[9],-0.265
same,glycan array binding signal (z-score),[10],-0.125
same,glycan array binding signal (z-score),[11],0.136
same,glycan array binding signal (z-score),[12],-0.35
same,glycan array binding signal (z-score),[13],-0.271
same,glycan array binding signal (z-score),[14],-0.179
same,glycan array binding signal (z-score),[15],0.159
same,glycan array binding signal (z-score),[16],-0.167
same,glycan array binding signal (z-score),[17],-0.195
same,glycan array binding signal (z-score),[18],0.34
same,glycan array binding signal (z-score),[19],-0.151
same,glycan array binding signal (z-score),[20],0.558
same,glycan array binding signal (z-score),[21],-0.239
same,glycan array binding signal (z-score),[22],-0.247
same,glycan array binding signal (z-score),[23],-0.059
same,glycan array binding signal (z-score),Fuc(a1-2)Gal(b1-4)Glc,0.571
same,glycan array binding signal (z-score),Fuc(a1-2)Gal(b1-4)Glc6S,0.834
same,glycan array binding signal (z-score),Fuc(a1-2)Gal(b1-4)GlcNAc,-0.315
same,glycan array binding signal (z-score),[24],-0.179
same,glycan array binding signal (z-score),[25],0.086
same,glycan array binding signal (z-score),[26],0.123
same,glycan array binding signal (z-score),[27],0.109
same,glycan array binding signal (z-score),[28],5.81
same,glycan array binding signal (z-score),[29],5.09
same,glycan array binding signal (z-score),[30],7.12
same,glycan array binding signal (z-score),[31],0.082
same,glycan array binding signal (z-score),[32],0.331
same,glycan array binding signal (z-score),[33],-0.211
same,glycan array binding signal (z-score),[34],0.151
same,glycan array binding signal (z-score),[35],0.179
same,glycan array binding signal (z-score),[36],-0.291
same,glycan array binding signal (z-score),[37],1.89
same,glycan array binding signal (z-score),[38],-0.275
same,glycan array binding signal (z-score),[39],0.254
